Out of some 150,000 compounds screened, about 540 (0.36%) showed an effect of 50% or more. This is one part of the list.

The assay concerns Plasmodium falciparum. In words: Primary screen in NF54 nanoGlo assay, in single point, at 2uM, 72h; a lower Z score goes with more inhibition. It is filed as functional, Erythrocyte. The conditions noted are these: timepoint 72 hour.
Consider `CC(C)(C)OC(=O)N1CCC(Nc2nc(-c3cnccn3)cs2)CC1`, for which the “% Inhibition” value is given as -1% and the Z score turned out to be 0.19.
With `c1ccc(C2CC(Nc3ccc(-c4cnco4)cc3)CCN2)cc1` (centres undefined), the “% Inhibition” value is recorded as -8% and the Z score is on record as 1.63.
For the molecule `COc1ccc2[nH]cc(CCNc3ncncc3-c3nc(-c4ccccc4F)no3)c2c1`, the “% Inhibition” value is on record as 4% and the Z score is -0.77.
Taken in the same sequence, the figures for `O=C1C[C@H](NCc2ccc3c[nH]nc3c2)CN1CCN1CCOCC1` were 0% and 0.02.
Regarding `CN1CCC(Cc2nc(-c3n[nH]c4ccccc34)n(C)n2)CC1`, the “% Inhibition” value is reported as -4% and the Z score was 0.7.
Taken in the same sequence, the figures for `COCC[C@H](C)NCC1(c2ccc(Cl)cc2)CC1` were -4% and 0.62.
Consider `Nc1nc2c(s1)CN(c1ccc(-c3ccc(F)cc3)nn1)CC2`, for which the “% Inhibition” value was 1% and the Z score is -0.12.
As to `Cc1noc(-c2cccnc2NCC2CCN(c3ccncc3)CC2)n1`, the “% Inhibition” value is given as -2% and the Z score was 0.24.
Taken in the same sequence, the figures for `O[C@H]1CCCC[C@@H]1Nc1ccc(-c2cccc(OCc3ccccc3)c2)cn1` were -12% and 2.05.
Regarding `Cc1cc(NC[C@H]2CCCCN2C)nc2cc(F)ccc12`, the “% Inhibition” value is -12% and the Z score stood at 2.15.
On to `COC[C@H](C)NC1CCN(c2ccc(-c3cc4ccccc4[nH]3)cc2)CC1`, for which the “% Inhibition” value was -1% and the Z score came to 0.2.
As for `C[C@H]1CCCCN1CCCNc1ccccn1`, the “% Inhibition” value is reported as 8% and the Z score is -1.43.
As to `O=C(NCc1nc2ccccc2[nH]1)c1csc(-c2cc3ccccc3[nH]2)n1`, the “% Inhibition” value amounted to 10% and the Z score was -1.52.
In the case of `CN1CCC(N2CC[C@H](N(C)C(=O)c3cnc4[nH]nnc4c3)C2)CC1`, the “% Inhibition” value is 1% and the Z score is reported as -0.13.
`CN(C)c1nc(N2CCN(c3ncnc4ccccc34)CC2)ncc1F`: the “% Inhibition” value is listed as -10% and the Z score worked out at 1.79.
Regarding `CCOc1cccc(CN2CC[C@H](Oc3ccccc3-c3nc(C4CCOCC4)no3)C2)c1`, the “% Inhibition” value was -9% and the Z score came to 1.51.
Take `CC1(C)CN(CCNC(=O)C[C@]2(O)CCCNC2)CCO1`: the “% Inhibition” value was determined as 1% and the Z score is reported as -0.12.
`OC1CN(c2nc(NCCCNc3cccnc3)cc([C@H]3CCOC3)n2)C1`: the “% Inhibition” value is reported as -12% and the Z score is given as 2.31.
On to `C[C@@H](c1ccccc1O)n1cnc(-c2ccccc2)c1-c1cccc(O)c1`, for which the “% Inhibition” value was -10% and the Z score was 2.11.
Taken in the same sequence, the figures for `COCCc1noc(-c2ccc(N3CCc4c([nH]c5ccccc45)C3)nc2)n1` were -16% and 2.42.
Turning to `CCc1nccn1CC(=O)N1CCC[C@](C)(c2ccccc2)C1`, the “% Inhibition” value is -3% and the Z score is on record as 0.49.
Taken in the same sequence, the figures for `Cc1nnc(COc2cccc3c2CCCC3=O)s1` were -5% and 0.75.
For `C[C@H](NCc1c[nH]c2nccnc12)c1cc(F)ccc1N1CCC(O)CC1`, the “% Inhibition” value turned out to be 3% and the Z score was -0.39.
In the case of `COc1ccc(F)cc1CNC1CCCC(S(C)(=O)=O)C1` (centres undefined), the “% Inhibition” value came out at 1% and the Z score was -0.2.
In the case of `COc1cc2nc(-c3ccc(F)c4cccnc34)nc(N)c2cc1OC`, the “% Inhibition” value amounted to 96% and the Z score is listed as -14.63.
Consider `Cc1cccc(NC[C@H]2CCCN2C(=O)Cc2c[nH]c3ncccc23)n1`, for which the “% Inhibition” value is -4% and the Z score came out at 0.7.
Take `CCOc1cccc(N2CCC(Nc3ccnc(C#N)n3)CC2)n1`: the “% Inhibition” value is -2% and the Z score is 0.33.
Turning to `C[C@H](NC(=O)c1ccc(COc2ccc3ccccc3c2)o1)c1nc2ccccc2[nH]1`, the “% Inhibition” value is listed as -1% and the Z score turned out to be 0.22.
For the molecule `CC1CCCCN1CCCNC(=O)C(C1CCCC1)N1CCN(C(=O)CC(C)(C)C)CC1` (centres undefined), the “% Inhibition” value was 14% and the Z score was -2.43.
For `O=C(NC1CCN(C[C@H]2CCOC2)CC1)c1csc(-c2cnccn2)n1`, the “% Inhibition” value is -9% and the Z score turned out to be 1.69.
For `CCC1(CC)CC(=O)N(Cc2cccc(OC)n2)C1=O`, the “% Inhibition” value is listed as -8% and the Z score is 1.16.
As to `COCCCN1CCC(Nc2ncnc3cc(C)c(C)cc23)CC1`, the “% Inhibition” value was 96% and the Z score is listed as -16.62.
In the case of `COc1ccc(OC)c2c(C)cc(NCC(C)(C)CN(C)C)nc12`, the “% Inhibition” value is -9% and the Z score is listed as 1.52.
As for `Cc1ccc2nccc(C(=O)N3CCC[C@H](Nc4ccc(F)c(F)c4)C3)c2c1`, the “% Inhibition” value was 0% and the Z score was 0.03.
`CCN1CCN([C@H]2CCN(c3nccc4nccnc34)C2)CC1`: the “% Inhibition” value was found to be 2% and the Z score is on record as -0.37.
For the molecule `O=C(Nc1ccnn1Cc1ccccc1C(F)(F)F)N1CCC[C@H]1CO`, the “% Inhibition” value is listed as -1% and the Z score was 0.17.
Taken in the same sequence, the figures for `CC(C)Oc1ccc(Br)c2cccnc12` were -6% and 0.92.
Consider `O[C@H]1C[C@@H](NCc2c(Cl)cncc2Cl)C1`, for which the “% Inhibition” value was -7% and the Z score amounted to 1.37.
Regarding `CN(C)C(=O)CN1CCCN(C(=O)c2ccc(-c3ccnc(N)n3)cc2)CC1`, the “% Inhibition” value is given as -1% and the Z score is 0.2.
`CN(Cc1ccnc2ccccc12)C(=O)CCc1nnc(-c2ccc3c(c2)OCO3)o1`: the “% Inhibition” value worked out at 1% and the Z score is recorded as -0.17.
In the case of `CN1Cc2ccccc2C[C@@H]1CNc1nccc(-c2ccncc2)n1`, the “% Inhibition” value is recorded as -11% and the Z score was 1.72.
Taken in the same sequence, the figures for `C[C@@H](C1CCN(c2nc(CCN)nc3ccccc23)CC1)N1CCN(C)CC1` were 7% and -1.41.

As usually defined, the % Inhibition is the drop in the measured response relative to a control, in per cent.

The record behind these values is ChEMBL document CHEMBL5308541, “MAIP: An Open-Source Tool to Enrich High-Throughput Screening Output and Identify Novel, Druglike Molecules with Antimalarial Activity” (ACS Med Chem Lett, 2023).
